Measured values taken from PubChem BioAssay AID504832 (National Center for Advancing Translational Sciences (NCATS), 2011).
The whole screen tested about 310,000 compounds, of which about 18,000 (5.8%) were called active. The shares of active, inactive and inconclusive entries below differ from those in the screen. Calls come from the whole dose curve; as a rule, active = well fitted inhibition curve with a large enough effect; inconclusive = small, poorly fitted or top-dose-only effect, or another doubt; inactive = no such curve, though single readings can be large or run the other way. Potencies of inconclusive entries are left out as doubtful fits.
Potency is the fitted concentration of half-maximal effect; tags give direction and shape of the fitted curve.

Assay: Primary qHTS for delayed death inhibitors of the malarial parasite plastid, 48 hour incubation
Settings: P. falciparum luciferase growth in erythrocytes; series mostly up to 28.7 µM
Outline: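 Read-out is firefly luciferase luminescence from an integrated reporter in P. falciparum, so falling signal marks reduced parasite growth. Infected erythrocytes were at 2% hematocrit and 0.1% parasitemia (final) in Albumax-supplemented RPMI 1640.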
In the case of `COCCN(C(=O)CCc1ccccc1OC)c1nnc(-c2cccnc2)s1`, the Potency is reported as inconclusive [inhibitor, single point].
With `COc1ccc(N(CC(=O)NCCSC2CCCCC2)S(=O)(=O)c2ccccc2)cc1OC` the Potency was active: 13.1 µM.
For `CCN1C(=NCCc2c[nH]c3ccccc23)N[C@@H](c2ccccc2)C(C(=O)OC)=C1C`, the Potency was active: 13.1 µM.
For `Cc1ccc2nc(C)cc(NCCO)c2c1`, the Potency was “inactive”.
For `CCN1C(=O)[C@H]2[C@@H](c3ccc(-c4ccc(C(C)=O)cc4)c(OC)c3)N[C@@](Cc3ccccc3)(C(=O)OC)[C@H]2C1=O`, the Potency was active: 8.28 µM.
In the case of `N#Cc1nc(Cc2cccc3ccccc23)oc1N1CCC(C(N)=O)CC1`, the Potency is reported as inconclusive [inhibitor, partial curve].
For `Cc1ccc(C23CC4CC(CC(NC(=O)NN)(C4)C2)C3)cc1`, the Potency was inconclusive [inhibitor, partial curve, poor fit].
For `COc1ccc(CC(=O)Nc2nc(C)cs2)cc1S(=O)(=O)N1CCOCC1`, the Potency was inconclusive [inhibitor, single point].
For `CC(C)(C)C1CCC(OCC(O)CN2CCN(Cc3ccccc3)CC2)CC1` (stereo not given), the Potency was inconclusive [inhibitor, single point].
With `O=C(NN=C1CCCC1)c1sc2ccccc2c1Cl` the Potency was inconclusive [inhibitor, single point].
In the case of `Cc1ccc(Nc2nc(CSc3nnc(-c4ccccc4)n3C)cs2)cc1`, the Potency is reported as “inactive”.
For `O=C(C1=C[C@@H](C2CC2)C[C@@H](OCc2ccc(CO)cc2)O1)N1CCN(Cc2ccccc2)CC1`, the Potency was inconclusive [inhibitor, single point].
With `C/[N+]([O-])=C\c1ccc([N+](=O)[O-])o1` the Potency was inconclusive [inhibitor, single point].
In the case of `COc1cccc(CN2CCC(Oc3ccc(C(=O)N4CCCCC4)cc3)CC2)c1O`, the Potency is reported as inconclusive [inhibitor, partial curve].
With `CCOC(=O)c1ccc(NC(=O)c2sc3nc4n(c(=O)c3c2C)CCC4)cc1` the Potency was inconclusive [inhibitor, full curve].
For `N#Cc1cnn2c(-c3ccc(Cl)cc3Cl)ccnc12`, the Potency was inconclusive [inhibitor, partial curve, poor fit].
In the case of `O=C(Nc1ccon1)Nc1cccc(Cl)c1Cl`, the Potency is reported as “inactive”.
In the case of `COc1ccccc1N1CCN(C(=O)CCc2ccc(S(=O)(=O)NC(C)C)cc2)CC1`, the Potency is reported as inconclusive [inhibitor, single point].
In the case of `Cc1ccc(-c2nn(-c3ccc(F)cc3)cc2C(=O)NCCCN2CCCC2=O)cc1`, the Potency is reported as inconclusive [inhibitor, partial curve].
For `C=CCn1c(O)c(N=Nc2ccccc2O)c2ccccc21`, the Potency was active: 9.28 µM.
For `CC1=CC(=O)N(c2ccc(C)cc2)C1c1ccc(Cl)cc1` (stereo not given), the Potency was inconclusive [inhibitor, full curve, poor fit].
For `O=C(NCc1ccco1)c1cc(-c2ccncc2)nc2ccccc12`, the Potency was active: 2.08 µM.
For `O=C(Nc1cccc(S(=O)(=O)N2CCCCC2)c1)c1ccc(OCC2CCCO2)cc1` (stereo not given), the Potency was inconclusive [inhibitor, partial curve, poor fit].
For `O=C(O)c1cc(-c2ccc(Br)s2)nc2ccccc12`, the Potency was “inactive”.
In the case of `O=C1CC(N2CCN(Cc3ccccc3)CC2)C(=O)N1c1ccc2c(c1)OCCO2` (stereo not given), the Potency is reported as “inactive”.
With `Cc1cc(F)ccc1S(=O)(=O)N1CCCOC1CNC(=O)C(=O)NC1CCCCC1` (stereo not given) the Potency was “inactive”.
For `Cc1cnc(CN2CCc3c([nH]c4ccccc34)C2CC(C)C)[nH]1` (stereo not given), the Potency was active: 13.1 µM.
In the case of `O=C(CCN1c2ccccc2Sc2ccccc21)Nc1ccccc1`, the Potency is reported as inconclusive [inhibitor, single point].
In the case of `CCN1CCN(c2ccc(S(=O)(=O)N3CCOCC3)cc2NC(=O)C(C)Oc2ccc(F)cc2)CC1` (stereo not given), the Potency is reported as inconclusive [inhibitor, partial curve, poor fit].
In the case of `Cc1ccc(S(=O)(=O)N2CCOCC2)cc1N/N=C(\C#N)c1nc2ccccc2[nH]1`, the Potency is reported as inconclusive [inhibitor, single point].
For `N/C(=N\OC(=O)/C=C/c1ccc(Br)cc1)c1ccccn1`, the Potency was “inactive”.
With `Nc1oc2ccc(F)cc2c(=O)c1C=O` the Potency was “inactive”.
With `OC(COc1ccccc1)Cn1cc(Br)cn1` (stereo not given) the Potency was “inactive”.
In the case of `COc1ccc(C2=NOC(Cn3c(Cc4ccc(Cl)cc4)nc4c3c(=O)n(C)c(=O)n4C)C2)cc1` (stereo not given), the Potency is reported as “inactive”.
With `Cc1ccc(C[C@H](C(=O)O)N2C(=O)c3ccc(C(=O)O)cc3C2=O)c(C)c1` the Potency was inconclusive [inhibitor, single point].
With `Cc1cc(CCC(=O)O)c(C)cc1CCC(=O)O` the Potency was active: 5.86 µM.
With `Cc1cc(C(=O)N2CCN(c3ccccc3O)CC2)c(C)o1` the Potency was inconclusive [inhibitor, single point].
With `Cc1csc(=O)n1CCC(=O)OCC(=O)NNC(=O)c1ccc(Br)cc1` the Potency was inconclusive [inhibitor, single point].
In the case of `O=C(N/N=C/c1c(Cl)cccc1Cl)c1n[nH]c2c1CCCC2`, the Potency is reported as “inactive”.
In the case of `Cc1cc2nc3n(c2cc1C)CC1CC(C(=O)NCc2cccc(C(F)(F)F)c2)N(C)C31` (stereo not given), the Potency is reported as inconclusive [inhibitor, partial curve, poor fit].
For `Cc1ccc(NC(=O)CC2Nc3ccccc3NC2=O)cc1Cl` (stereo not given), the Potency was inconclusive [inhibitor, partial curve].
In the case of `COc1ccc(CNCCC(c2ccc(OC(C)C)cc2)c2ccccc2OC)cc1` (stereo not given), the Potency is reported as inconclusive [inhibitor, single point].
In the case of `COCCN(C(=O)CSc1nc(-c2ccccc2)cn1N)c1c(N)n(Cc2ccccc2)c(=O)[nH]c1=O`, the Potency is reported as inconclusive [inhibitor, partial curve, poor fit].
In the case of `CC1=NN(c2cccc(F)c2)C(=O)/C1=C/c1ccc(N(C)C)cc1`, the Potency is reported as “inactive”.
With `O=C(Nc1cccc(Cl)c1)Nc1nnc(-c2ccncc2)s1` the Potency was active: 11.7 µM.
